Source: patent publication US7544481 (REGENTS OF THE UNIVERSITY OF MICHIGAN, dated 2009)

Key:
[1] = molecular target: [35S]methionine-labeled luciferase protein (UniProt P08659 = luciferase, limits assumed, [35S]methionine label); assay: GST pull-down of in vitro translated 35S-labeled protein, autoradiography
Protocol: (§1) GST Fusion Protein Expression and In Vitro Binding Assay—Native (CD40T) and mutant (CD40A) CD40 sequences used in the construction of the yeast bait vectors were excised and subcloned into the glutathione S-transferase ("GST") fusion protein vector pGSTag (as described in Ron et al. (1992) *BioTechniques* 13:866-869) and transformed into the *Escherichia coli* strain BL21 […] pLysS (as described in Studier et al. (1991) *J. Mol. Bio.* 219:37-44). GST and GST fusion proteins were prepared using published procedures of Studier et al. (1991) supra, and the recombinant proteins were immobilized onto glutathione-agarose beads at a concentration of about 8 mg/ml (as described in Harper et al. (1993) supra).
(§2) Figure 2: FIGS. 2A and 2B show the interaction of in vitro translated CD40bp with GST fusion proteins. [^35S]Methionine-labeled CD40bp or luciferase protein as control was incubated with GST alone, GSTCD40T (native CD40 cytoplasmic domain), or GSTCD40A (mutant CD40 cytoplasmic domain $Thr^234 \rightarrow Ala$). Following incubation and washing, GST beads were boiled in SDS-sample buffer and resolved on a 10% acrylamide gel, and bound protein was visualized by autoradiography.

[2] = molecular target: T1, in vitro translated [35S]methionine-labeled CD40bp (human, UniProt Q13114 1-568, [35S]methionine label); assay: as above
T1 construct: Translated in reticulocyte lysate from the 2.2-kilobase pair cDNA excised from pACT; It migrated at 64 kDa, close to the predicted mass
T1 sequence: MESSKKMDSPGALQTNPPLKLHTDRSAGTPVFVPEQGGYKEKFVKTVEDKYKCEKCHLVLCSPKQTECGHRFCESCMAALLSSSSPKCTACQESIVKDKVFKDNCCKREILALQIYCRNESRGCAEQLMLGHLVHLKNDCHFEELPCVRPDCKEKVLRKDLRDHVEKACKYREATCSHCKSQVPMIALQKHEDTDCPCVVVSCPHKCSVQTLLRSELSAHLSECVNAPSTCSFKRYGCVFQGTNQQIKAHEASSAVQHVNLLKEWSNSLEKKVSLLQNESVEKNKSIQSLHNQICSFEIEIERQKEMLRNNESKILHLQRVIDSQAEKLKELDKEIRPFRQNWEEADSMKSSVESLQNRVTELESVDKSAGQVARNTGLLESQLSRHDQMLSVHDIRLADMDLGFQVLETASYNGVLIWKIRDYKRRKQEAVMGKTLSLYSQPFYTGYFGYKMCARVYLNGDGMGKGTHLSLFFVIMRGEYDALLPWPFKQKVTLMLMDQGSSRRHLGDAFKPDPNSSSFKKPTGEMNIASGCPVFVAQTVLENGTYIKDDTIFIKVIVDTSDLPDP
Protocol: as §1, §2

- binding result [1]: no binding
- binding result [2]: no binding
B1: GST alone (other)
chain: not shown
notes: Control beads; also called glutathione S-transferase
